Results published in PubChem BioAssay AID1159614 (National Center for Advancing Translational Sciences (NCATS), 2016).
Screen size: about 45,000 compounds; about 65 (0.1%) were called active. The call rests on the fitted dose curve; in most records, active means well fitted activation curve with a large enough effect; inconclusive means small, poorly fitted or top-dose-only effect; inactive means no such curve, though single readings can be large or run the other way. The list shows a part of the results.

Target: Galactocerebrosidase (Homo sapiens) (UniProt P54803)
Sequence of UniProt P54803 (P54803 whole entry, looked up): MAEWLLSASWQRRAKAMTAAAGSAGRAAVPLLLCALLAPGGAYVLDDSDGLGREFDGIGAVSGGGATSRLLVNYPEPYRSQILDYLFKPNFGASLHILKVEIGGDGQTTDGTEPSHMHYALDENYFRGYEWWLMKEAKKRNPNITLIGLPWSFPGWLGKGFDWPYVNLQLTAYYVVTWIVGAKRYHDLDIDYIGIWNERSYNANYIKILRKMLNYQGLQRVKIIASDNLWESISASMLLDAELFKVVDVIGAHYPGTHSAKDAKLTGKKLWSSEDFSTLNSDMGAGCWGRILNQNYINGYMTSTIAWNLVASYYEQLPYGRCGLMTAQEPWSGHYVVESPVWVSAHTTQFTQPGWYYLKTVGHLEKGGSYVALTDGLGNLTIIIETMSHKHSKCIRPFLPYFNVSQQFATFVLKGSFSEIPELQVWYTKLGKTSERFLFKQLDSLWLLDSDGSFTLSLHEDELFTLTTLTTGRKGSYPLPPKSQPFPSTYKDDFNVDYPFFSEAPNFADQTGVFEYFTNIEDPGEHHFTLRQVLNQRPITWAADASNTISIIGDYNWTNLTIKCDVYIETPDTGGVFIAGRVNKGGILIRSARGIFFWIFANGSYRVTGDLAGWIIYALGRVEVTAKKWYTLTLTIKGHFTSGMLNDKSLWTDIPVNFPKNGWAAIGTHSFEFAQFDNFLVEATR
Assay: A Novel Cell-Based Assay to Identify Small Molecules for B -Galactocerebrosidase; further: 0% is about no effect; nearly all actives have a fitted effect of over 65% in size
Conditions: 145M-Twi-hGALC-G270D cells (Twitcher mouse brain line with human GALC G270D), HMU-beta-Gal fluorescence, 48 h; series mostly up to 57.5 µM; activation: at the top concentration
How it was run: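 Live 145M-Twi cells (Twitcher mouse brain-derived, GALC-null) stably expressing human GALC-G270D, with a wild-type GALC line, were compound-treated. Residual GALC activity was then read as fluorescence from 0.1 mM final HMU-β-gal at pH 5.2; higher signal means activation.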

activation, inactive:
CC(C)(C)c1ccc(C2NC(=O)c3n[nH]c(-c4cccs4)c32)cc1 (centres undefined) -18%, Cc1ccc(Cl)cc1NC(=O)COCc1cc(-c2ccco2)on1 3.5%, CCCCSCCCNC(=O)CN1C(=O)COc2ccc(S(=O)(=O)N3CCC(C)CC3)cc21 12.3%, COc1ccc(C)cc1NC(=O)C(=O)NCC1(c2ccccc2)CCCC1 -10.7%, O=C(Nc1nnc(S(=O)(=O)N2CCN(c3ccc(F)cc3)CC2)s1)c1ccc(Cl)cc1 -9.11%, O=C(CNC(=O)c1ccc(Cl)cc1)OCc1cc(=O)n2ccsc2n1 -5.43%, COc1ccc(-c2[nH]c3c(c2-c2c(-n4cccc4)n(C)c(=O)n(C)c2=O)c(=O)n(C)c(=O)n3C)cc1 -18.3%, COc1ccccc1N1CCN(c2ncnc3c2nc2n3CCCC2)CC1 4.5%, COC(=O)c1ccc(NC(=O)Cn2nc(C(=O)Nc3ccc(C)cc3)ccc2=O)cc1 -5.71%, Cc1ccc(NC(=O)Cn2c(CCC(=O)O)ccc2-c2ccc(Cl)cc2)cc1 -15.5%, Cc1ccc(Cn2cc(CCC(=O)NCc3ccccc3F)c3ccccc32)cc1 -6.28%, CCN(CC)S(=O)(=O)c1ccc2c(c1)N(CC(=O)N(C)Cc1ccccc1)C(=O)CO2 -8.83%, COCCNC(=O)C(=O)NCC(c1cccnc1)N1CCN(c2ccccc2)CC1 (centres undefined) -6.29%, Cc1ccc(-n2c(SCC(=O)Nc3c(C)cccc3C)nc(O)c(C)c2=O)cc1 -7.2%, CCC1CN(C(=O)N2CCC(C(=O)NCc3ccco3)CC2)c2ccccc2O1 (centres undefined) -13.4%, O=C(Cc1ccc(Cl)cc1)Nc1ccc2nn(-c3ccccc3)nc2c1 -14.9%, Cc1ccccc1C(c1c(C)n(C)n(-c2ccccc2)c1=O)c1c(C)n(C)n(-c2ccccc2)c1=O -20.2%, CC(C)CCNc1ncnc2c1cnn2-c1cccc(Cl)c1 -2.57%, Cc1ccc(-n2ncc3c(=O)n(Cc4ccccc4C)cnc32)cc1C -15.7%, Cc1cc(C)c(CN2C(=O)c3ccccc3S(=O)(=O)c3ccc(C(=O)OCC4CCCO4)cc32)c(C)c1 (centres undefined) -10.5%, CCS(=O)(=O)c1ncc(Cl)c(C(=O)N(Cc2ccccc2)c2ccc(OC)cc2)n1 -20.5%, CCOc1ccc2c(c1)c(=O)c(C(=O)c1ccc(C)cc1)cn2Cc1ccccc1OC -12.2%, CC(=O)c1cccc(NC(=O)N2CCC(CN3CCCCC3)CC2)c1 -17.5%, CC(C)c1ccc(NC(=O)Cn2c(=O)n(Cc3nc(-c4ccccc4)no3)c(=O)c3cc4c(cc32)OCO4)cc1 -8.46%, CCOc1ccccc1NC(=O)CN1C(=O)C2(SCC(=O)N2c2ccc(C)cc2)c2ccccc21 (centres undefined) -14.1%, CO[C@@]1(NC(=O)Cc2cccs2)C(=O)N2C(C(=O)O)=C(COC(N)=O)CS[C@@H]21 -14%, CS(=O)(=O)N1CCc2cc(C(=O)Nc3ccc(S(N)(=O)=O)cc3)ccc21 -23.4%, COc1cccc(Nc2sc(C(=O)c3ccc(Cl)cc3)c(N)c2C(=O)NCCc2ccc(OC)c(OC)c2)c1 -20.9%, CCc1ccc(NC(=O)c2ccc(F)c(S(=O)(=O)NCCc3ccc(OC)c(OC)c3)c2)cc1 4.82%, COc1ccc(OC)c(Nc2c3c(nc4ccccc24)CCC3)c1 -16.6%, COc1cc(Cl)c(NC(=O)C(NS(=O)(=O)c2cccs2)C(C)C)c(OC)c1 (centres undefined) -11.2%, CCCN(Cc1cccs1)C(=O)Nc1ccc(F)c(Cl)c1 -5%, Cc1ccc(-n2ncc(C(=O)NCCCN3CCN(C)CC3)c2C2CCN(C(=O)OC(C)(C)C)CC2)c(C)c1 -7.86%, Cn1c(Oc2ccccc2)nc2c1c(=O)n(Cc1ccc(Cl)cc1Cl)c(=O)n2C -13.5%, CC(C)(C)OC(=O)N1CCC(c2c(C(=O)N3CCCCC3)cnn2-c2ccc(F)cc2F)CC1 -20.8%, CC(=O)c1ccc2c(c1)N(CCCN1CCC(CCO)CC1)c1ccccc1S2 -12.9%, Cc1ccc(C)c(NC(=O)Cn2c(=O)n(Cc3ccc4c(c3)OCO4)c(=O)c3ccccc32)c1 2.87%, CCCSc1nnc2n(-c3cccc(C)c3)c(=O)c3c4c(sc3n12)CCCC4 -7.07%, Cc1cccc(C(=O)OCc2cc(=O)n3nc(-c4cccs4)sc3n2)c1 -7.29%, CCOC(=O)C1CCCN(C(=O)c2ccc(NC(=O)c3nsc4ccccc34)cc2)C1 (centres undefined) -3.79%, CNS(=O)(=O)c1cn(CC(=O)N2CCN(c3ccccc3OC)CC2)cc1S(=O)(=O)NC -3.81%, Cc1ccc2c(CC(=O)N(Cc3cccc(Cl)c3)C3CCS(=O)(=O)C3)coc2c1 (centres undefined) 15.2%, Cc1ccc(C(=O)CC2(O)C(=O)N(Cc3ccccc3)c3ccccc32)c(C)c1 (centres undefined) -2.47%, COC(=O)c1ccccc1NC(=O)Cn1c(=O)cc(C)c2c(C)nn(-c3cccc(Cl)c3C)c21 -16.1%, O=C(CCn1cnc2onc(-c3ccc(F)cc3)c2c1=O)N1CCN(c2ccccc2F)CC1 -1.18%, O=C(CC1Nc2cccc3cccc(c23)NC1=O)Nc1ccc(F)cc1 (centres undefined) -22.1%, COc1ccc(Cl)cc1NC(=O)Cn1cnc2sc(C)c(S(=O)(=O)N3CCN(c4ccccc4OC)CC3)c2c1=O -13.1%, N#Cc1cccc(NC(=O)CCNS(=O)(=O)c2ccc3c(c2)CCN3C(=O)C2CC2)c1 -43.3%, CC(C)OCCCN1C(=O)c2[nH]nc(-c3ccccc3O)c2C1c1cccc(OCc2ccccc2)c1 (centres undefined) -8.31%, Cc1ccc2c(c1)C(c1ccc(F)cc1)N(C(=O)c1cccc(C(F)(F)F)c1)CC(=O)N2 (centres undefined) -20.5%, Cc1ccc(-n2nnnc2CNC(=O)c2ccccc2C)cc1C -14.5%, COc1cccc(N2CCN(Cc3cc(=O)oc4cc(C)ccc34)CC2)c1 -13.5%, Cc1cc(C)cc(-n2ccnc2SCC(=O)Nc2nc3ccc(C)cc3s2)c1 -20.3%, COc1ccc(-c2nc(Cn3c(=O)cc(C)c4c(C)nn(-c5ccccc5)c43)c(C)o2)c(OC)c1 -8.13%, CN(C)c1ccc(CNC(=O)Cn2ccc3cc(S(=O)(=O)N4CCCCCC4)ccc32)cc1 -2.92%, O=C(Nc1nnc(S(=O)(=O)N2CCc3ccccc32)s1)c1ccccc1Cl -12.2%, CCOC(=O)c1c(C)[nH]c(CCC(=O)NCCCN2CCN(c3ccccc3F)CC2)c1C -22.1%, Cc1c2cnn(CC(=O)N3CCN(c4ccc(F)cc4)CC3)c(=O)c2c(C)n1Cc1ccccc1F -34.4%, COc1ccc(CNC(=O)C(=O)Nc2cc(Cl)ccc2OC)cc1 -8.02%
